{
  "source": "patent US12441803B2",
  "about": "“Engineered CD25 polypeptides and uses thereof” (iBio, Inc., priority 2018, dated 2025)",
  "molecules": {"B1": {"name": "YU389-B11: anti-CD25 scFv clone, SEQ ID NO: 734 (protein, listed as Mus musculus)", "scFv": "PGSSVKVSCKASGGTFSSYAISWVRQAPGQGLEWMGGIIPIFGTANYAQKFQGRVTITADESTSTAYMELSSLRSEDTAVYYCAREMYYYYGMDVWGQGTTVTVSSCAREMYYYYGMDVW[letters of about 100 residues not shown]FGQGTKLEIKCQQSYSTPPTF"}},
  "biological_target": "T1, CD25 (Homo sapiens, UniProt P01589)",
  "T1 sequence (P01589 22-272)": "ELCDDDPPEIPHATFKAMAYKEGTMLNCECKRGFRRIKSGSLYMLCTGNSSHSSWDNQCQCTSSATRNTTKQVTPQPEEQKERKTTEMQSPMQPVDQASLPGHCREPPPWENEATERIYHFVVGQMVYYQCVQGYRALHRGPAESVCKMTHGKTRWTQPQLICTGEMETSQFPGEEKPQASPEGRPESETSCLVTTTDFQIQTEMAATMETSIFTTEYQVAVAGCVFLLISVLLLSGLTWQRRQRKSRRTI",
  "test": "Binding of human IgG1 format antibodies to CD25 by Octet",
  "conditions": "read-out: Biosensor Measured CD25 Affinity",
  "text": "Thirty antibodies were selected for additional testing as full-length immunoglobulins. The heavy and light chain sequences were cloned into human immunoglobulin G (IgG1) format and expressed and purified.",
  "data": [
    {"molecule": "B1", "values": [
      {"measurement": "Kd", "result": 142, "unit": "nM"}
    ]}
  ]
}
